Data: the supplement of paper PMC10126150
Values marked as one replicate rest on one cluster of the flow cell; about a third of the high ones do not repeat.

System: ATP
Assay: switch fluorescence ratio, 500 uM ATP over buffer (Cy3 cluster intensity, sum of 5 cycles each) (fold (ratio)); higher = stronger signal-on switching upon ATP binding; sequences stand for … in TCGTCGGCAGCGTCAGATGTGTATAAGAGACAGTTTTTTTTTTTTTTTTTTTTTTTTT…TC
Details: aptamer strand: ATP DNA aptamer (quencher-CACCTGGGGGAGTATTGCGGAGGAAGG + anchor), 100 nM annealed; ATP concentration: 500 uM; one replicate
Procedure, shortened: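 Cy3-labelled switching-strand clusters on a modified Illumina MiSeq flow-cell were annealed to 100 nM quencher-labelled ATP aptamer and imaged first in selection buffer, then after 15 min with 500 uM ATP at 22 °C. NaOH stripping and re-annealing separated each of five buffer/ATP cycles, and clusters outside 100-1000 RFU were excluded. The fluorescence ratio sums target-cycle Cy3 intensity over buffer-cycle Cy3 intensity per cluster and averages it per switch-domain sequence.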
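Further: ATP exposure 15 min at 22 °C before imaging.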

Sequence | switch fluorescence ratio
CGTTATGCTT | 0.979
GCACTTGGCT | 1
TGGAGGATTT | 1
GGTCAGGACA | 1.01
TTTAGACTAC | 0.979
TATGTTAAGG | 1.01
GTCAATGATT | 0.971
ACTAGCCGAG | 1.04
CCTCAACCGG | 1.32
AACACCCTTT | 1.07
ATTTTCATTT | 0.99
CGTGGGTGTG | 1.06
ATGCCACCCG | 1.05
GATGGCCTT | 0.994
AGTTCCATGG | 1
TCGCGGAGTC | 1.03
AAGAGGAGAC | 0.984
GGGGAATATT | 0.981
CTATCTCTGA | 1.01
TTTAATAAAT | 1.02
TCAAATTTAT | 1.02
TCAAGGGA | 0.968
CTCCACTTAT | 1.25
AGATAGCCTA | 0.982
TTTTGTGCCT | 0.932
CGCCTGTTAC | 1.94

Sequence | switch fluorescence ratio
GGTAGAATTT | 0.994
TCGGGTTAAC | 1.02
ACCAGAGCTG | 1.11
ATTGGGTCAT | 0.994
TTTCTCCTTA | 1
AGTCCTGCCA | 1.02
GCGCTCGGTC | 1.04
GGTTCAGCTA | 1
CAGTCTGGGA | 0.978
TTCTGGCAAG | 1.01
TCAGCTCTCA | 1.04
ATGCGCCGTT | 1.03
TAGAAACATA | 0.983
AAGACTGCCG | 1.02
AGAAATAGTG | 1
CTCGAAGGAA | 1.04
ATAACGATCA | 1.08
GAAAGTCTGA | 0.996
TGGTACAAG | 1
CGTCGCGCAC | 2.49
GTAGGCTGAC | 0.966
AATGTCGGTA | 1.01
CAACAAAAAA | 0.983
ACAGAGCCA | 1.04
ATGGTAGGTC | 0.965
ATTTAGGTAA | 1.02

Sequence | switch fluorescence ratio
TCACGCTCTT | 0.999
TGCTGATATT | 0.989
TCATAGGGCT | 0.987
AGGGGTTTCA | 1
CCAGCTCTAG | 1.02
TCCCGCGAAG | 1.21
GTTGAGACGG | 0.955
TTTATGTGGC | 1
CCGGTGCCCA | 1.14
CAGGACACTT | 1.02
TTGGCGCGT | 1.03
GCGGTTTGTC | 0.979
CTGATGTCGG | 0.977
CGTTGTGTCC | 1
TGCGTACTG | 1.02
AACATTTAGG | 1.03
GCCTACTACA | 1.05
CCGGGCGGTT | 1.01
GGCGTAGAGT | 0.936
TCGTTATTG | 0.975
AACCCTGGTT | 1.06
ACGAGGCAG | 1.67
TAGAGATGAG | 1.01
ATGGGCTGCA | 1.05
GTATTTTCAG | 0.945
TGCCTAACGC | 1.03

Sequence | switch fluorescence ratio
CGTCGGTGCC | 0.968
AACCACTTCT | 1.03
CTTTACATAA | 1.03
TCGGGTACCC | 1.02
TATTTATGT | 1
GATACCAACG | 1.39
TACCGGGTTG | 1.01
AATTCATGAA | 0.948
CTGATAGAGA | 1.03
GACTAGAAGA | 1.02
CTATTCCGTT | 1.01
ACGTTTACAC | 1.56
TGGTTGGGC | 0.957
GCGAAACCCG | 1.04
GACAGTAACT | 1.08
TTTCGCTCCA | 1.06
TAATGAGGGT | 1.01
ATCACAGCAT | 1.08
ACGTCATTGT | 1.13
CAAACACATT | 1
ATTCAAGTGG | 1.03
GGTTTGACAG | 0.994
ATGGTATTAC | 1.06
GTTGGGGACC | 1.01
GGTGCTAAG | 1.02
CGAGTTCCTA | 0.992

Sequence | switch fluorescence ratio
GATGTGCTTT | 0.959
TTTGAGCGAT | 1.08
CCTCTCGGGA | 1.37
TAAGGGGTG | 0.989
ATCCTGTTGG | 1.02
CAAGCCGGTG | 1.02
AGCTAGGGCA | 1.03
GGGATACGG | 1.11
CCGAACGGGG | 1.66
ATTAATAACA | 0.986
GCTTCAAAAT | 1
AGCTTGACTC | 1.08
GGCGAAGATG | 0.989
AGTGTCTAGA | 1
CAAAGGGACG | 1.01
TAGTCGTGCG | 1.01
AGTGGTGAAG | 0.972
GGGCACAATA | 1.02
TACGACGTT | 1.08
GTTGATTGAT | 0.981
GGAAGGTAGC | 0.959
AGATGCACTC | 1.05
CACGTTAAGA | 1.17
CCCTGTCAGC | 1.18
TCATCCAGTC | 1
AGTATGGAGT | 1.04

Sequence | switch fluorescence ratio
GCTTTGGGGT | 0.954
CAGGAAGTCT | 1.02
AGAGTGGTTC | 1.01
ACGGTGGGGT | 1.02
TGTCTAAACG | 0.987
ATCTACCCAG | 1.08
GCAGGATTTG | 0.986
ATTGGTTGGA | 0.989
GCTTGACGCG | 0.984
CAGCTTCTAA | 0.98
CAACCGAACT | 1.28
GAATCGTCGG | 1.05
ACAAAGTCGC | 1.01
AGTCAACTCT | 0.976
AAACGGATCG | 1.08
CCGAAGGGTC | 1.19
GTTTACCATT | 0.987
GCGAGAATTT | 0.94
TCTGGTCTTG | 1.04
AAATAGTTAT | 0.98
CAAAACGAGA | 0.964
CAAGTTCGCC | 0.976
CGGAACTTTG | 1.03
TAAGATTGAA | 1
GCGTTGGACT | 0.973
CGACTCAATG | 1.28

Sequence | switch fluorescence ratio
TCCGTAGGTG | 1.31
CGGTCATACA | 1.04
GAGAATCGTT | 0.972
GGATCTAAG | 1.01
GTGGAGGTAA | 1.01
TATTGTTTTC | 0.968
AATTTTATT | 0.995
TTCATAAACT | 1.07
CGCAGGTTCA | 1
TACTGATTAA | 1.02
CCTGGCACTA | 1.85
ACGGTGGGTG | 1.01
CCACAGAGGC | 1.08
CGAGCATCGG | 1.01
GCATGTTGCA | 1.01
GTATAAGCG | 0.936
TTACCGGAAG | 1.05
GCTCTCGGGT | 0.998
CTAACTATGG | 0.963
TGATTGATA | 1.01
AGGTGCTTCT | 0.98
GGGTCGGAT | 0.998
TGCTTTCTGG | 0.969
CCGGAGTGGG | 4.56
TTGCTTCTTC | 1.07
GATGCTATA | 1.02

Sequence | switch fluorescence ratio
GGCGTAAGAA | 0.983
GCTTGCCGGG | 1.01
GACGGTCGTG | 0.997
GAGCTATCTA | 0.997
GATCGCGCCT | 1.04
ACTTTTCACA | 1.07
TCTCATCACC | 1.02
TAAACGGGCT | 0.999
GTATTCTGCT | 1.02
TCCATTCTAA | 1.01
ATCTGCTCCG | 1.11
GGGGAGACTT | 1.02
ACATCCAGCG | 1.12
TAGCCGCGTA | 1.12
AAGAGATATT | 1.02
GGGTAATCGT | 0.996
GGCTCCCCGT | 1.14
GGTTGACAGA | 1.01
AGGAGGTTAA | 0.972
